In patent US11178870B2 (priority 2017, dated 2021):

How the values were obtained:
Phytophthora infestans = assay type: in vivo; conditions: Table 7, Test F
Magnaporthe grisea = assay type: in vivo; conditions: Table 7, Test A
[1] = system: Colletotrichum orbiculare; conditions: 250 ppm sprayed (2.5 ml/pot) before inoculation; assessed 6 to 10 days after inoculation

| SMILES | control value, Test F (late blight on tomato) (Phytophthora infestans) | control value, Test A (blast on rice) (Magnaporthe grisea) | control value, Test H (anthracnose on cucumber) [1] |
| --- | --- | --- | --- |
| CCn1c(-c2ccc(F)cc2Cl)c(-n2cc(F)cn2)cc(Br)c1=O [Compound 329] | L (L shows the control value of 50% or less) | H (H shows the control value more than 50%) | H (H shows the control value more than 50%) |
| CCn1c(-c2ccccc2[N+](=O)[O-])c(-n2cc(Cl)cn2)cc(Br)c1=O [Compound 257] | L (L shows the control value of 50% or less) | L (L shows the control value of 50% or less) | H (H shows the control value more than 50%) |
| CCn1c(-c2ccc(C#N)cc2F)c(-n2cc(Cl)cn2)cc(Cl)c1=O [Compound 279] | L (L shows the control value of 50% or less) | H (H shows the control value more than 50%) | H (H shows the control value more than 50%) |
| CCn1c(-c2c(F)cccc2F)c(-c2ccsc2Cl)ccc1=O [Compound 296] | L (L shows the control value of 50% or less) | H (H shows the control value more than 50%) | H (H shows the control value more than 50%) |
| Cc1cnn(-c2cc(Cl)c(=O)n(CC(F)F)c2-c2c(F)cccc2F)c1Cl [Compound 190] | L (L shows the control value of 50% or less) | H (H shows the control value more than 50%) | H (H shows the control value more than 50%) |
| CCn1c(-c2ccccc2Br)c(-n2cc(Cl)cn2)cc(Br)c1=O [Compound 196] | L (L shows the control value of 50% or less) | H (H shows the control value more than 50%) | L (L shows the control value of 50% or less) |
| O=c1c(Br)cc(-n2cc(Cl)cn2)c(-c2ccccc2Cl)n1CC(F)F [Compound 294] | L (L shows the control value of 50% or less) | H (H shows the control value more than 50%) | L (L shows the control value of 50% or less) |
| CCn1c(-c2c(F)cc(OC)cc2F)c(-n2cc(Cl)cn2)ccc1=O [Compound 238] | L (L shows the control value of 50% or less) | H (H shows the control value more than 50%) | H (H shows the control value more than 50%) |
| Cc1cnn(-c2ccc(=O)n(CC(F)F)c2-c2ccccc2Cl)c1 [Compound 227] | L (L shows the control value of 50% or less) | L (L shows the control value of 50% or less) | L (L shows the control value of 50% or less) |
| CCn1c(-c2ccc(F)cc2F)c(-n2cc(F)cn2)ccc1=O [Compound 250] | L (L shows the control value of 50% or less) | H (H shows the control value more than 50%) | H (H shows the control value more than 50%) |
| O=c1ccc(-n2cc(F)cn2)c(-c2ccc(F)cc2F)n1CC(F)F [Compound 284] | L (L shows the control value of 50% or less) | H (H shows the control value more than 50%) | H (H shows the control value more than 50%) |
| CCn1c(-c2c(F)cc(F)cc2F)c(-n2cnc(Cl)n2)cc(Cl)c1=O [Compound 261] | L (L shows the control value of 50% or less) | H (H shows the control value more than 50%) | H (H shows the control value more than 50%) |
| COc1ccc(-c2c(-n3cc(Cl)cn3)cc(Cl)c(=O)n2CC(F)F)c(F)c1 [Compound 213] | L (L shows the control value of 50% or less) | H (H shows the control value more than 50%) | H (H shows the control value more than 50%) |
| Cc1cnn(-c2cc(Br)c(=O)n(CC(F)F)c2-c2ccccc2F)c1 [Compound 309] | L (L shows the control value of 50% or less) | H (H shows the control value more than 50%) | L (L shows the control value of 50% or less) |
